This is an account of results in the supplement of paper PMC4206461.

This is one part of the list.

The assay relates to Pseudomonas aeruginosa PA14 dppA1-A5 penta deletion mutant. As to the kind of experiment: respiration area under curve with compound as sole nitrogen source, 24 h (OmniLog AUC (arbitrary units)); higher = more respiration / better utilisation as nitrogen source, active = 2000 or more. Particulars: plate: PM8. As for the experimental part:
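Biolog Phenotype MicroArray plates PM6-PM8: each di/tripeptide is the sole nitrogen source. Tetrazolium reduction was read in the OmniLog for 24 h at 37°C and summarised as area under the respiration curve (arbitrary units). Values below 2000 count as no respiration.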
Turning to `N[C@@H](Cc1ccc(O)cc1)C(=O)NCC(=O)NCC(=O)O`, the “respiration area under curve” value is active: 6190.
